Measured values from US8883120B2, “Polypeptides having affinity for HER2” (Affibody AB, priority 2007, dated 2014).
Marks after values point to notes of the source that are not given here.

Assays:
[1] = biological target: T1, recombinant human HER2/Fc (ErbB2/Fc) chimeric protein (Homo sapiens, UniProt P04626); assay: Surface Plasmon Resonance (Biacore 2000) binding kinetics on immobilized HER2/Fc; conditions: 1:1 Langmuir model with mass transfer correction; for ka: association rate constant; for kd: dissociation rate constant
T1 construct: consisting of the extracellular domain of ErbB2 (HER2, Met^1-Thr^652); purchased R&D Systems 1129-ER

[2] = test system: primate Ig (pool of primate serum); assay: In vitro antigenicity (IVA) ELISA; conditions: serum dilution value at OD 0.3 related to standard Z00342 set to 100; below 100 = lower primate Ig-binding
[3] = test system: HER2 overexpressing SKOV-3 tumor xenografts; assay: Biodistribution of 111In-labeled Affibody molecule in mice bearing SKOV-3 xenografts; type: in vivo, BALB/c nu/nu mice; conditions: for Tumor uptake: 1 μg (100 kBq) i.v.
[4] = test system: HER2 expressing SKOV-3 xenograft tumors; assay: Gamma camera imaging, 111In-labeled Affibody molecule, SKOV-3 xenografts; type: in vivo, BALB/c nu/nu mice; conditions: 30 minutes and 4 hours p.i., 3 μg (4.5 MBq)
[5] = test system: HER2 negative A431 xenografts; assay: Gamma camera imaging, 111In-labeled Affibody molecule, A431 xenografts (control); type: in vivo, BALB/c nu/nu mice; conditions: 4 h p.i., 3 μg (4.5 MBq)

ka [1]	kd [1]	Substance	IVA-Value [2]	tolerability of injections ([3]; 1 μg (100 kBq) in tail vein)	Tumor uptake ([3]; 0.5 hour p.i.)	Kidney uptake ([3]; 1 hour p.i.)	tumor-to-blood ratio ([3]; 1 hour p.i.)	Tumor uptake ([3]; 1 hour p.i.)	tumor-to-blood ratio ([3]; 4 hour p.i.)	tumor-to-liver ratio ([3]; 4 hours p.i.)	Tumor uptake ([3]; 4 hours p.i.)	reduction of tumor uptake by pre-injection of excess unlabeled Affibody molecule (blocking experiment) ([3]; 4 hours p.i., 0.9 mg unlabeled NEM-blocked molecule II s.c. 50 min before)	Kidney uptake ([3]; 24 hours p.i.)	tumor-to-blood ratio ([3]; 24 hours p.i.)	Tumor uptake ([3]; 24 hours p.i.)	gamma camera imaging of tumor targeting [4]	uptake of radioactivity in HER2-negative tumor (gamma camera image) [5]
1.27E+07* 1/Ms	8.10E−04* 1/s	Affibody® molecule II with DOTA: Affibody molecule II (SEQ ID NO:5) with maleimido-mono-amide-DOTA coupled to the C-terminal cysteine	6														
1.23e+07 M⁻¹ s⁻¹	0.000741 s⁻¹	Affibody® molecule II with NEM: Affibody molecule II (SEQ ID NO:5) whose C-terminal cysteine SH-group is blocked with N-ethylmaleimide (NEM)															
		^111In-labeled Affibody® molecule II with DOTA: Affibody molecule II with DOTA coupled to the C-terminal cysteine, radiolabeled with 111In		tolerated well	13±2 % IA/g	186±24 % IA/g	16	17±2 % IA/g	88	10	15±3 % IA/g	86%	144±13 % IA/g	275	11±4 % IA/g	high specific tumor targeting	negligible uptake
